These results are taken from paper PMC12136788.

The chains are these.
B1: chr11:20126016:20126017:+_ENSMUSG00000020149_ENSMUST00000020358|mus_mus|motif|central (ssRNA)
RNA: GGGAGUUCUACAGUCCGACGAUCGGGAAAAAAGCCAGGCGUGGCGGCGCACACCUUCAGUCUCAGCACUCAGAGACAGAGCGGGGUGGAUCCCUGAGUUCGAGGCCAGCCUGGUCUACAGAGAGAGUUCCAGGACAGCCAGGGCAACAGAGGAUUGAGCAUCA
B2: chr18:35832659:35832660:-_ENSMUSG00000024350_ENSMUST00000025208|mus_mus|FALSE|FALSE (ssRNA)
RNA: GGGAGUUCUACAGUCCGACGAUCAGCCUGGUCUACAGUGAGUUCCAGGACAGCCAGGGCUACAUAAAAUUAAAAAUUUAAAACAAAACAACAAAACCCAAACAAUCAAGAAGUUGUUCAAGGUUUUUGACUGUAUAUGAAUUUCAACAGAGGAUUGAGCAUCA
B3: 69548568_69548688_5610_CDS_ENSMUSG00000005198_ENSMUST00000058470|mouse|control|control (ssRNA)
RNA: GGGAGUUCUACAGUCCGACGAUCACUAGUUGGAGAAUAGUUAGGGCUGGUGGGUGAGUAGCUUGGAGAAGUUGGUGAGUAGCUUGGAGAAGUUGGUGAGUAGCUGGGAGAUGUCGGUGAGUAGCUGGGGGAGGUGGGAGAAUACAACAGAGGAUUGAGCAUCA
B4: chr4:76721835:76721836:+_ENSG00000138768_ENST00000264904|hu_mus|hu_hu_hu_mus_True|1_18 (ssRNA)
RNA: GGGAGUUCUACAGUCCGACGAUCGUUUGGCUGGGGUUUCUGAGACGCUCUGGAAUAUAACUCAUGUUUGCUAAUAAAUCCUAGUUUCUCUAUGAAAUUCUCUUUGCCAAUCCUCUUUCAAUCAGUUUGCUUUAGUUCUCUUUCCAACAGAGGAUUGAGCAUCA
B5: chr9:42776281:42776282:-_ENSMUSG00000059495_ENSMUST00000165665|mus_hu|motif|central (ssRNA)
RNA: GGGAGUUCUACAGUCCGACGAUCUCUUUACCCACUCCCAUCCCACCCUUUCCUUAGCAACCCCCACCCCUGCCACGGUCCGAAGCAUUUCCAUUUGUUUUUACUUCCUGCUCAAUCUGCAGGGACAGUUUUACACAAGUGCCACAACAGAGGAUUGAGCAUCA
B6: 111654399_111654519_7874_CDS_ENSG00000009413_ENST00000368805|human|control|control (ssRNA)
RNA: GGGAGUUCUACAGUCCGACGAUCUGAUUGGAAAUCCAAAACGAGAACAGAGUUGCUAUAGAAGCGGGAUUCAGGCUCCAUAAUUAGAGGAACACACUGUGGGGCUCUCAUCUGGGAUCUUUGCUGAACACUAGGUGUCACAGGCAACAGAGGAUUGAGCAUCA
B7: chr1:163112212:163112213:-_ENSG00000143248_ENST00000313961|hu_hu|hu_hu_hu_mus_False|1_58 (ssRNA)
RNA: GGGAGUUCUACAGUCCGACGAUCUUUUAUUAUCAGUAAGAGUGAGUUACAUACUAGGCAAAGUAUUGGAUACAAUAUUCUAAAGAUAAACACUAUUGGUCCAGAAUUUAAAACUUUAUGAGCGAAGUGCUGGCACAGGAUUUACAACAGAGGAUUGAGCAUCA
B8: chr1:120316390:120316391:+_ENSMUSG00000064302_ENSMUST00000049404|mus_hu|motif|central (ssRNA)
RNA: GGGAGUUCUACAGUCCGACGAUCUAACAUGGUCUGGUCAUGCUCAAGGUCAGCAGACUUCUGUUUGUCUGAGAAAUAGUCGGUCAGUUCUUGGCCAACCUGCAAUCGUUUCCCCACAUCCUUCUGCAACACCUGCGCCAGGCACAACAGAGGAUUGAGCAUCA
B9: 55057885_55058289_1828_CDS_ENSMUSG00000025982_ENSMUST00000027127|mouse|control|control (ssRNA)
RNA: GGGAGUUCUACAGUCCGACGAUCUUCCACUCUAGCAUAGUAAUCUUCAUCAAUCAACAGUGGCUCGAUAACCACAAGAAUCUUGUGCACAUACGGCCGCACCAAGUCAUCAAGUUUAUACAAUAUUCUAUCAAUAACUUUCACCAACAGAGGAUUGAGCAUCA
B10: chr8:121473430:121473431:+_ENSG00000172167_ENST00000305949|hu_hu|FALSE|FALSE (ssRNA)
RNA: GGGAGUUCUACAGUCCGACGAUCAAUAUCCGACAUAUAGCAGGAGGGUAGAUCUGAUAAUUUUAUCAUCUGCACAAAUUCUAAAGCAGGGCCAUAAUAAUGGAAAACCUUUGGCAAAAUAUUCUUAUCCUUUGAUGGUAUGAUCAACAGAGGAUUGAGCAUCA
B11: chr12:39756943:39756944:-_ENSG00000139116_ENST00000544797|hu_mus|hu_hu_hu_mus_False|58_98 (ssRNA)
RNA: GGGAGUUCUACAGUCCGACGAUCGGUUUGGCUGUUACCCCCGAGGGAAUCCUGCAAGAGUCUUGUCAGCUUAGAGUCUCUAUAGGGGACAUGGGUGGCUCUCUUGCUCUUGUCCCCCAAGGCGCUGAUUACAUUCCCAAGAGCCAACAGAGGAUUGAGCAUCA
B12: chr4:109034340:109034341:+_ENSMUSG00000028552_ENSMUST00000102729|mus_mus|FALSE|FALSE (ssRNA)
RNA: GGGAGUUCUACAGUCCGACGAUCUUCUUCUCUAGCUUUCAACAGUUCUUCCUCAUAACUGGAGAUCUGAGAUUCUUGACUAGUUAUUUCUGCUUUCAGGGAAGAAAUCAGCUGGGCCUCCUCAGCACACUUUUUCCUGACUUCCAACAGAGGAUUGAGCAUCA
B13: chr2:61719535:61719536:-_ENSG00000082898_ENST00000401558|hu_hu|FALSE|FALSE (ssRNA)
RNA: GGGAGUUCUACAGUCCGACGAUCGUUAACUACAGUCUUCAGAAAUUUCCAGUGAGCUCUCAAAAAACGUGGGUAUUGACCUACUAUGUACAUGAUAUUUGAUGCAAUAAUAGCUUUAUUAUCUUUGCCUCUUUUCUGUUCACACAACAGAGGAUUGAGCAUCA
B14: 109687111_109687231_1267_CDS_ENSG00000148143_ENST00000277225|human|control|control (ssRNA)
RNA: GGGAGUUCUACAGUCCGACGAUCCAUCUGAGGGUAAGACAUGGGCGAAAACUUGGAAGCUGAAGAAUUGGGUCUCAUGAUGGAGUUGCCCAUGGAGCCCCUGAAGUUGGAGACGGUAGUAUUGGGUAUCUCCCGGCUUGCAGCCAACAGAGGAUUGAGCAUCA

This is one part of the list.

The target of the experiment is T1, UNK ZnF1-3 (human, UniProt Q9C0B0 31-174).
T1 sequence: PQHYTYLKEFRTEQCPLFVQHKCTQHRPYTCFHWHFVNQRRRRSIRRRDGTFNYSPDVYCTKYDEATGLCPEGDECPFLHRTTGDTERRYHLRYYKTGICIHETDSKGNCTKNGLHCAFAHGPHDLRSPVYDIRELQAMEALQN
Description: nsRBNS (natural sequence RNA bind-n-seq); RBNS binding buffer (assumed for nsRBNS): 25 mM Tris pH 7.5, 150 mM KCl, 3 mM MgCl2, 0.01% Triton X-100, 500 ug/ml BSA, 20 U/ml SUPERase-In, 4 C; UNK is unkempt and MSI1 is Musashi-1; names of the RNAs are library labels; protein concentration not given here; high values mean tight binding.
With B1, the binding signal was 0.833 enrichment R.

The molecule B2 displayed a binding signal of 2.25 enrichment R.

B3 showed a binding signal of 1.72 enrichment R.

With B4, the binding signal was 0.46 enrichment R.

B5: the binding signal worked out at 0.739 enrichment R.

B6 registered a binding signal of 1.05 enrichment R.

In turn, B7 had a binding signal of 1.29 enrichment R.

B8 gave a binding signal of 0.668 enrichment R.

The molecule B9 returned a binding signal of 1.09 enrichment R.

With B10, the binding signal came to 1.35 enrichment R.

As to B11, the binding signal was 0.861 enrichment R.

B12 gave a binding signal of 0.686 enrichment R.

As for B13, the binding signal turned out to be 0.7 enrichment R.

B14 showed a binding signal of 1.35 enrichment R.
